The campaign covered roughly 48,000 compounds. About 120 (0.25%) were called active. Inconclusive results (about 4%) are left out. Calls follow the shape of the dose curve; as a rule, active = well fitted activation curve with a large enough effect; inconclusive = small, poorly fitted or top-dose-only effect, or another doubt; inactive = no such curve, though single readings can be large or run the other way. The list shows a part of the results.
Test: Primary qHTS for Identification of Small Molecule Activators of Huntingtin-Antisense Promoter Activity; also: nearly all actives have a fitted effect of over 55% in size
Details: HEK293 HTT-AS promoter firefly luciferase reporter (activity 0% = vehicle and -100% = no light), 24 h; series mostly up to 57.5 µM; activity change, positive = activation: at the top concentration
Method in brief: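 Firefly luciferase signal from promoter-reporter HEK293 cells was scaled between vehicle (0%) and zero RLU (-100%). Compounds were tested at final concentrations of up to 57.5 uM over 24 h at 37 degrees C. PTC124 at 50 uM final served as control inhibitor.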

**Q.** For `CC(=O)N(CC(O)CO)c1c(I)c(C(=O)NCC(O)CO)c(I)c(C(=O)NCC(O)CO)c1I` (stereo not given), which “activity change, positive = activation” value is on record?
**A.** Its value is inactive: -0.458%.

**Q.** With `O=C(NC1CCN(Cc2ccccc2)CC1)c1ccc(Cn2c(=O)c3ccccc3n(Cc3cccc(F)c3)c2=O)cc1` as the compound, how does the “activity change, positive = activation” value read?
**A.** The value was inactive: -19.1%.

**Q.** With `Cc1cccc(C)c1-n1ncc(C(=O)NCCN2CCN(C)CC2)c1C1CCN(C(=O)OC(C)(C)C)CC1` as the compound, how does the “activity change, positive = activation” value read?
**A.** The value was inactive: -3.58%.

**Q.** For `CCOc1ccc(C(=O)NCc2nc(-c3ccc(Cl)cc3)no2)cc1OCC`, which “activity change, positive = activation” value is on record?
**A.** Its value is inactive: 10.5%.

**Q.** With `CCOC(=O)c1cnc2ccc(OC)cc2c1Nc1cccc(C(C)=O)c1` as the compound, how does the “activity change, positive = activation” value read?
**A.** Its value is inactive: -31.2%.

**Q.** Which “activity change, positive = activation” value does the source give for `CCN(Cc1ccccc1)S(=O)(=O)c1ccc(F)c(C(=O)Nc2cc(C)ccc2OC)c1` here?
**A.** Its value is inactive: -22.8%.

**Q.** Which “activity change, positive = activation” value does the source give for `Cc1cccc(NC(=O)C2CCN(S(=O)(=O)c3c(C)noc3/C=C/c3ccco3)CC2)c1` here?
**A.** Its value is inactive: -28.7%.

**Q.** For `Cc1ccccc1OCC(=O)Nc1ccc2nc(SCC(=O)N3CCOCC3)sc2c1`, which “activity change, positive = activation” value is on record?
**A.** The value was inactive: -22.2%.

**Q.** With `O=C(CN1C(=O)C2(SCC(=O)N2c2ccc(F)c(F)c2)c2ccccc21)Nc1cccc(Cl)c1` (stereo not given) as the compound, how does the “activity change, positive = activation” value read?
**A.** The value was inactive: -35.3%.

**Q.** With `CCOc1ccc(NC(=O)CCNS(=O)(=O)c2cccs2)cc1` as the compound, how does the “activity change, positive = activation” value read?
**A.** Its value is inactive: 8.55%.

**Q.** For `COc1c(C)cc(NS(=O)(=O)c2ccc3c(c2)OCCO3)cc1C`, which “activity change, positive = activation” value is on record?
**A.** Its value is inactive: -32.2%.

**Q.** With `COc1ccc(CNC(=O)C2CCN(C(=O)N3CCOc4ccc(Cl)cc43)CC2)cc1` as the compound, how does the “activity change, positive = activation” value read?
**A.** Its value is inactive: -33.4%.

**Q.** For `Cc1ccc(C)c(S(=O)(=O)n2nc(C)c(S(=O)(=O)N3CCCCCC3)c2C)c1`, which “activity change, positive = activation” value is on record?
**A.** The value was inactive: -3.16%.

**Q.** Which “activity change, positive = activation” value does the source give for `COc1ccc(NC(=O)CCCN2C(=O)CCn3nc(-c4cn(C)c5ccccc45)cc32)cc1` here?
**A.** Its value is inactive: -15.5%.

**Q.** With `Cc1cc(Nc2ccccc2O)nc(C)n1` as the compound, how does the “activity change, positive = activation” value read?
**A.** The value was inactive: 1.48%.

**Q.** Which “activity change, positive = activation” value does the source give for `COc1cc(NC(=O)c2nnn(CC(=O)Nc3cc(C)ccc3C)c2N)cc(OC)c1` here?
**A.** The value was inactive: -16.5%.

**Q.** Which “activity change, positive = activation” value does the source give for `CCOc1cc(C(=O)Nc2ccc3c(c2)n(C)c(=O)c(=O)n3C)cc(OCC)c1OCC` here?
**A.** Its value is inactive: -12.7%.

**Q.** For `CCOc1ccc(-n2c(SCC(=O)Nc3ccc(CC)cc3)nc3c(oc4ccccc43)c2=O)cc1`, which “activity change, positive = activation” value is on record?
**A.** Its value is inactive: -18%.

**Q.** For `CCOC(=O)CCc1c(C)nc2cc(-c3cc(OC)cc(OC)c3)[nH]n2c1=O`, which “activity change, positive = activation” value is on record?
**A.** Its value is inactive: -1.7%.

**Q.** For `Cc1nc2ccc(S(=O)(=O)N(CC(=O)Nc3ccc(F)cc3)Cc3ccccc3)cc2s1`, which “activity change, positive = activation” value is on record?
**A.** Its value is inactive: -18.3%.

**Q.** With `COC(=O)c1sc2cccc(F)c2c1S(=O)(=O)N1CCN(c2cccc(C)c2)C(C)C1` (stereo not given) as the compound, how does the “activity change, positive = activation” value read?
**A.** Its value is inactive: -17%.

**Q.** Which “activity change, positive = activation” value does the source give for `CC1CCc2c(sc(NC(=O)CCCOc3ccccc3)c2C(N)=O)C1` (stereo not given) here?
**A.** The value was inactive: -1.44%.

**Q.** For `CC(C)(C)OC(=O)N1CCC(c2c(C(=O)N3CCN(C(=O)c4ccco4)CC3)cnn2-c2ccc(F)cc2F)CC1`, which “activity change, positive = activation” value is on record?
**A.** The value was inactive: -18%.

**Q.** Which “activity change, positive = activation” value does the source give for `CCCOC(=O)c1c(NC(=O)c2cc3ccccc3c(=O)o2)sc2c1CCC(C)C2` (stereo not given) here?
**A.** The value was inactive: 1.25%.

**Q.** With `CCOc1ccc(-n2nc3ccc(NC(=O)Cc4ccccc4)cc3n2)cc1` as the compound, how does the “activity change, positive = activation” value read?
**A.** The value was inactive: -94.3%.

**Q.** For `COc1ccc(-c2cn3c(C)c(C(=O)Nc4cc(C)cc(C)c4)sc3n2)cc1`, which “activity change, positive = activation” value is on record?
**A.** The value was inactive: -8.22%.

**Q.** Which “activity change, positive = activation” value does the source give for `CCOC(=O)c1cnc2c(Cl)cc(Cl)cc2c1Nc1ccccc1OC` here?
**A.** The value was inactive: -8.39%.

**Q.** For `COC(=O)c1ccc(Cn2nnc3c(=O)[nH]c(C4CCCN(S(=O)(=O)c5ccccc5Cl)C4)nc32)cc1` (stereo not given), which “activity change, positive = activation” value is on record?
**A.** The value was inactive: 7.09%.

**Q.** Which “activity change, positive = activation” value does the source give for `Cc1ccc(-c2nnc3c4ccccc4c(C)nn23)cc1NC(=O)c1ccccc1` here?
**A.** Its value is inactive: -3.94%.

**Q.** With `CCc1cccc(NC(=O)CN(C)S(=O)(=O)c2ccc3[nH]c4c(c3c2)CCCC4)c1` as the compound, how does the “activity change, positive = activation” value read?
**A.** Its value is inactive: -27.1%.

**Q.** Which “activity change, positive = activation” value does the source give for `CCc1ccccc1-n1c(N)c(C(=O)OC)c2nc3ccccc3nc21` here?
**A.** The value was inactive: -30.1%.

**Q.** With `Cc1cc(-c2ccc(C)c(S(=O)(=O)N3CCOc4ccc(Cl)cc43)c2)on1` as the compound, how does the “activity change, positive = activation” value read?
**A.** Its value is inactive: -34.6%.

**Q.** For `CCc1ccccc1NC(=O)Cn1c(=O)ccc2cc(S(=O)(=O)N3CCCC3)ccc21`, which “activity change, positive = activation” value is on record?
**A.** Its value is inactive: -19.2%.

**Q.** With `CCCSc1ncc(Cl)c(C(=O)N(Cc2ccc(Cl)cc2)Cc2ccco2)n1` as the compound, how does the “activity change, positive = activation” value read?
**A.** The value was inactive: -42.4%.

**Q.** For `CCOC(=O)N1CCc2c(sc3c2c(=O)n(-c2ccc(CC)cc2)c(=O)n3C)C1`, which “activity change, positive = activation” value is on record?
**A.** The value was inactive: -0.751%.

**Q.** With `COc1ccc(OCc2ccc(-c3nc(C#N)c(N4CCCCC4)o3)o2)cc1` as the compound, how does the “activity change, positive = activation” value read?
**A.** The value was inactive: -30.2%.

**Q.** For `Cc1ccccc1OCC(=O)N1CCC(c2nc3ccccc3s2)CC1`, which “activity change, positive = activation” value is on record?
**A.** Its value is inactive: -11.6%.

**Q.** Which “activity change, positive = activation” value does the source give for `COc1ccc(C(=O)c2c(N)c(C(=O)Nc3cccc(OC)c3)c3ccccn23)cc1` here?
**A.** Its value is inactive: 3.45%.

**Q.** For `Cc1c(C(=O)N(C)C)sc2c1c(=O)n(-c1ccc(Cl)cc1)c(=O)n2CC(=O)C(C)(C)C`, which “activity change, positive = activation” value is on record?
**A.** The value was inactive: -9.8%.

**Q.** With `Cc1ccc(NC(=O)Cn2nc(N3CCN(c4ccccc4)CC3)ccc2=O)cc1F` as the compound, how does the “activity change, positive = activation” value read?
**A.** The value was inactive: -19.7%.

**Q.** With `COc1ccc(-n2c(=O)c3sc4ccccc4c3n(Cc3ccccc3C)c2=O)cc1OC` as the compound, how does the “activity change, positive = activation” value read?
**A.** The value was inactive: -4.8%.

**Q.** Which “activity change, positive = activation” value does the source give for `CCC1CCCCN1S(=O)(=O)c1cc2c3c(c1)CC(=O)N3CCC2` (stereo not given) here?
**A.** The value was inactive: -9.6%.

**Q.** For `CCOC(=O)c1c(C)[nH]c(C)c1S(=O)(=O)N1CCC(C(=O)NCc2cccc(OC)c2)CC1`, which “activity change, positive = activation” value is on record?
**A.** Its value is inactive: -1.37%.

**Q.** Which “activity change, positive = activation” value does the source give for `COc1ccc(S(=O)(=O)N2Cc3ccccc3CC2C(=O)Nc2ccc(C)cc2C)cc1OC` (stereo not given) here?
**A.** The value was inactive: -9.32%.

**Q.** Which “activity change, positive = activation” value does the source give for `CCC(C(=O)O)n1ccc2cc(S(=O)(=O)N3CCCCC3)ccc21` (stereo not given) here?
**A.** Its value is inactive: -12.9%.

**Q.** Which “activity change, positive = activation” value does the source give for `CCOC(=O)c1c(C)oc2ncnc(Nc3cc(C)cc(C)c3)c12` here?
**A.** The value was inactive: -6.8%.

**Q.** Which “activity change, positive = activation” value does the source give for `O=C(NCCCN1CCN(c2cccc(Cl)c2)CC1)c1cnn(-c2ccc(F)cc2)c1-n1cccc1` here?
**A.** Its value is inactive: -39.6%.

**Q.** For `O=C(NCCc1csc2nc(-c3ccccc3F)nn12)C(=O)Nc1cc(F)ccc1F`, which “activity change, positive = activation” value is on record?
**A.** Its value is inactive: 3.06%.

**Q.** With `CCC1=C(c2ccc(C)cc2)S(=O)(=O)N=C1N1CCC(C(=O)NCc2ccc(N(C)C)cc2)CC1` as the compound, how does the “activity change, positive = activation” value read?
**A.** The value was inactive: -40.2%.

**Q.** With `CCN1C(=O)c2ccccc2Sc2ccc(NC(=O)Nc3cccc([N+](=O)[O-])c3C)cc21` as the compound, how does the “activity change, positive = activation” value read?
**A.** The value was inactive: -45.8%.

**Q.** For `Cc1ccc(N2CC(NC(=O)c3cccc(Cl)c3)CC2=O)cc1C` (stereo not given), which “activity change, positive = activation” value is on record?
**A.** The value was inactive: -16.9%.

**Q.** With `COc1ccc(N(C(=O)c2ccc(C(C)(C)C)cc2)S(=O)(=O)c2ccc(Cl)cc2)cc1` as the compound, how does the “activity change, positive = activation” value read?
**A.** The value was inactive: -9.41%.

**Q.** Which “activity change, positive = activation” value does the source give for `COc1ccc(CNC(=O)c2cnn3c(C)c(Cc4c(F)cccc4Cl)c(C)nc23)cc1` here?
**A.** Its value is inactive: -4.94%.

**Q.** With `COc1cc(O)cc(O)c1` as the compound, how does the “activity change, positive = activation” value read?
**A.** The value was inactive: -3.58%.

**Q.** Which “activity change, positive = activation” value does the source give for `Cc1cccc(N2CCN(C(=O)c3cnc(N4CCCC4)nc3C)CC2)c1C` here?
**A.** Its value is inactive: -14.8%.

**Q.** For `COc1ccc(C2c3c(n(C)c4ccccc34)C(=O)N2CC(=O)Nc2cccc(Cl)c2C)cc1` (stereo not given), which “activity change, positive = activation” value is on record?
**A.** Its value is inactive: -18.9%.

**Q.** Which “activity change, positive = activation” value does the source give for `CCc1ccccc1Nc1sc(C(=O)c2cccc(OC)c2)c(N)c1S(=O)(=O)c1ccccc1` here?
**A.** Its value is inactive: -27.9%.

**Q.** For `CC1CCCN(C(=O)Cn2ncc3c([nH]c4ccccc43)c2=O)C1` (stereo not given), which “activity change, positive = activation” value is on record?
**A.** The value was inactive: -15.9%.

**Q.** With `CCCCOc1ccc(C(=O)NCc2nnnn2-c2ccc(C)c(C)c2)cc1` as the compound, how does the “activity change, positive = activation” value read?
**A.** Its value is inactive: -14.8%.

**Q.** With `COC(=O)c1c(NC(=O)/C(C#N)=C/c2ccccc2)sc2c1C(C(=O)OC)CC2` (stereo not given) as the compound, how does the “activity change, positive = activation” value read?
**A.** The value was inactive: 7.97%.

— PubChem BioAssay AID1508624 (National Center for Advancing Translational Sciences (NCATS), 2021)
